Sequences and labels used below:
B1: TEV protease; numbered along this chain (parent)
chain: MGESLFKGPRDYNPISSSICHLTNESDGHTTSLYGIGFGPFIITNKHLFRRNNGTLVVQSLHGVFKVKDTTTLQQHLVDGRDMIIIRMPKDFPPFPQKLKFREPQREERICLVTTNFQTKSMSSMVSDTSCTFPSGDGIFWKHWIQTKDGQCGSPLVSTRDGFIVGIHSASNFTNTNNYFTSVPKNFMELLTNQEAQQWVSGWRLNADSVLWGGHKVFMVKPEEPFQPVKEATQL

The list shows a part of the results. The full chains were built here from the parent and the listed change. Inactive controls read about 0.05.
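Further: Bxb1 expression induced with 0.2% (w/v) L-rhamnose at OD600 near 0.5, cultures sampled hourly, flipped fraction per protease–substrate barcode pair counted by paired-end Illumina sequencing.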

In the experiment the parent is B1. The experiment is described as follows: raw area under fraction-flipped curve 0-4 h after induction (AUC4h, not background-subtracted), DNA-recorder readout of cleavage of the substrate (dimensionless); higher = more cleavage of the substrate by the protease variant. Conditions: temperature: 34 °C; time window: 0-4 h after rhamnose induction. Here is the method: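 In vivo DNA recorder in E. coli TOP10(DE3) ΔrhaA at 34 °C. Each TEVp single-site mutant (parent TEVp 0) is paired with a single-site variant of the 7-mer TEVs (canonical ENLYFQ|S). The substrate sits between flexible linkers in a Bxb1-sfGFP-TEVs-SsrA fusion, so cleavage stabilises Bxb1 and speeds flipping of a recombination array, read by NGS. The value is the raw area under the fraction-flipped curve over 0-4 h after rhamnose induction (AUC4h), with ≥20 reads per time point. It is not background-subtracted; inactive controls average about 0.047.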
Turning to MGESLFKGPFDYNPISSSICHLTNESDGHTTSLYGIGFGPFIITNKHLFRRNNGTLVVQSLHGVFKVKDTTTLQQHLVDGRDMIIIRMPKDFPPFPQKLKFREPQREERICLVTTNFQTKSMSSMVSDTSCTFPSGDGIFWKHWIQTKDGQCGSPLVSTRDGFIVGIHSASNFTNTNNYFTSVPKNFMELLTNQEAQQWVSGWRLNADSVLWGGHKVFMVKPEEPFQPVKEATQL [R10F], the “area with substrate EALYFQS” value was 0.0909, the “area with substrate EFLYFQS” value was determined as 0.115, the “area with substrate EILYFQS” value is 0.0739 and the “area with substrate EKLYFQS” value came to 0.0703. In addition, the “area with substrate ELLYFQS” value stood at 0.0731, the “area with substrate EMLYFQS” value is 0.0828, the “area with substrate EPLYFQS” value turned out to be 0.101 and the “area with substrate EQLYFQS” value was found to be 0.0949. In addition, the “area with substrate ERLYFQS” value came out at 0.0795, the “area with substrate ESLYFQS” value is 0.088 and the “area with substrate EVLYFQS” value was found to be 0.0481.

For the variant MGESLGKGPRDYNPISSSICHLTNESDGHTTSLYGIGFGPFIITNKHLFRRNNGTLVVQSLHGVFKVKDTTTLQQHLVDGRDMIIIRMPKDFPPFPQKLKFREPQREERICLVTTNFQTKSMSSMVSDTSCTFPSGDGIFWKHWIQTKDGQCGSPLVSTRDGFIVGIHSASNFTNTNNYFTSVPKNFMELLTNQEAQQWVSGWRLNADSVLWGGHKVFMVKPEEPFQPVKEATQL [F6G], the “area with substrate EALYFQS” value turned out to be 0.0642, the “area with substrate ECLYFQS” value is 0.0889, the “area with substrate EELYFQS” value was determined as 0.151 and the “area with substrate EILYFQS” value amounted to 0.0911. Besides, the “area with substrate EVLYFQS” value came out at 0.0805.

With MGESLPKGPRDYNPISSSICHLTNESDGHTTSLYGIGFGPFIITNKHLFRRNNGTLVVQSLHGVFKVKDTTTLQQHLVDGRDMIIIRMPKDFPPFPQKLKFREPQREERICLVTTNFQTKSMSSMVSDTSCTFPSGDGIFWKHWIQTKDGQCGSPLVSTRDGFIVGIHSASNFTNTNNYFTSVPKNFMELLTNQEAQQWVSGWRLNADSVLWGGHKVFMVKPEEPFQPVKEATQL [F6P], the “area with substrate EALYFQS” value turned out to be 0.0967, the “area with substrate EILYFQS” value worked out at 0.0813, the “area with substrate ELLYFQS” value worked out at 0.0798 and the “area with substrate EMLYFQS” value came to 0.0959. Moreover, the “area with substrate EPLYFQS” value was found to be 0.0985, the “area with substrate ESLYFQS” value was 0.0929 and the “area with substrate EVLYFQS” value was 0.0886.

Regarding MGTSLFKGPRDYNPISSSICHLTNESDGHTTSLYGIGFGPFIITNKHLFRRNNGTLVVQSLHGVFKVKDTTTLQQHLVDGRDMIIIRMPKDFPPFPQKLKFREPQREERICLVTTNFQTKSMSSMVSDTSCTFPSGDGIFWKHWIQTKDGQCGSPLVSTRDGFIVGIHSASNFTNTNNYFTSVPKNFMELLTNQEAQQWVSGWRLNADSVLWGGHKVFMVKPEEPFQPVKEATQL [E3T], the “area with substrate EALYFQS” value was 0.166, the “area with substrate ECLYFQS” value turned out to be 0.118, the “area with substrate EMLYFQS” value is 0.127 and the “area with substrate ESLYFQS” value worked out at 0.128.

Regarding MGEQLFKGPRDYNPISSSICHLTNESDGHTTSLYGIGFGPFIITNKHLFRRNNGTLVVQSLHGVFKVKDTTTLQQHLVDGRDMIIIRMPKDFPPFPQKLKFREPQREERICLVTTNFQTKSMSSMVSDTSCTFPSGDGIFWKHWIQTKDGQCGSPLVSTRDGFIVGIHSASNFTNTNNYFTSVPKNFMELLTNQEAQQWVSGWRLNADSVLWGGHKVFMVKPEEPFQPVKEATQL [S4Q], the “area with substrate EALYFQS” value came to 0.102, the “area with substrate ECLYFQS” value is 0.108, the “area with substrate EHLYFQS” value amounted to 0.119 and the “area with substrate EILYFQS” value was determined as 0.0935. Further, the “area with substrate EMLYFQS” value amounted to 0.126, the “area with substrate EPLYFQS” value stood at 0.128, the “area with substrate EQLYFQS” value came out at 0.126 and the “area with substrate ESLYFQS” value was determined as 0.108. For the same variant, the “area with substrate ETLYFQS” value turned out to be 0.131, the “area with substrate EVLYFQS” value was found to be 0.0939, the “area with substrate EWLYFQS” value worked out at 0.0976 and the “area with substrate EYLYFQS” value worked out at 0.125.

In the case of MLESLFKGPRDYNPISSSICHLTNESDGHTTSLYGIGFGPFIITNKHLFRRNNGTLVVQSLHGVFKVKDTTTLQQHLVDGRDMIIIRMPKDFPPFPQKLKFREPQREERICLVTTNFQTKSMSSMVSDTSCTFPSGDGIFWKHWIQTKDGQCGSPLVSTRDGFIVGIHSASNFTNTNNYFTSVPKNFMELLTNQEAQQWVSGWRLNADSVLWGGHKVFMVKPEEPFQPVKEATQL [G2L], the “area with substrate EALYFQS” value came out at 0.162, the “area with substrate EELYFQS” value stood at 0.179, the “area with substrate EGLYFQS” value was 0.111 and the “area with substrate EKLYFQS” value was 0.137. The “area with substrate ELLYFQS” value was 0.12, the “area with substrate EPLYFQS” value stood at 0.168, the “area with substrate ERLYFQS” value stood at 0.169 and the “area with substrate ESLYFQS” value is 0.12. For the same variant, the “area with substrate EWLYFQS” value was 0.125.

As to MCESLFKGPRDYNPISSSICHLTNESDGHTTSLYGIGFGPFIITNKHLFRRNNGTLVVQSLHGVFKVKDTTTLQQHLVDGRDMIIIRMPKDFPPFPQKLKFREPQREERICLVTTNFQTKSMSSMVSDTSCTFPSGDGIFWKHWIQTKDGQCGSPLVSTRDGFIVGIHSASNFTNTNNYFTSVPKNFMELLTNQEAQQWVSGWRLNADSVLWGGHKVFMVKPEEPFQPVKEATQL [G2C], the “area with substrate EALYFQS” value was found to be 0.0564, the “area with substrate EFLYFQS” value is 0.129, the “area with substrate EKLYFQS” value is 0.0569 and the “area with substrate EPLYFQS” value was determined as 0.121. Moreover, the “area with substrate ERLYFQS” value turned out to be 0.0722.

For MGESLFLGPRDYNPISSSICHLTNESDGHTTSLYGIGFGPFIITNKHLFRRNNGTLVVQSLHGVFKVKDTTTLQQHLVDGRDMIIIRMPKDFPPFPQKLKFREPQREERICLVTTNFQTKSMSSMVSDTSCTFPSGDGIFWKHWIQTKDGQCGSPLVSTRDGFIVGIHSASNFTNTNNYFTSVPKNFMELLTNQEAQQWVSGWRLNADSVLWGGHKVFMVKPEEPFQPVKEATQL [K7L], the “area with substrate EALYFQS” value came to 0.069, the “area with substrate ECLYFQS” value is 0.0703, the “area with substrate EELYFQS” value worked out at 0.0709 and the “area with substrate EILYFQS” value was 0.0485. Besides, the “area with substrate EKLYFQS” value was found to be 0.0728, the “area with substrate EMLYFQS” value worked out at 0.0622, the “area with substrate EQLYFQS” value came out at 0.0724 and the “area with substrate ESLYFQS” value came out at 0.09.

For MGESCFKGPRDYNPISSSICHLTNESDGHTTSLYGIGFGPFIITNKHLFRRNNGTLVVQSLHGVFKVKDTTTLQQHLVDGRDMIIIRMPKDFPPFPQKLKFREPQREERICLVTTNFQTKSMSSMVSDTSCTFPSGDGIFWKHWIQTKDGQCGSPLVSTRDGFIVGIHSASNFTNTNNYFTSVPKNFMELLTNQEAQQWVSGWRLNADSVLWGGHKVFMVKPEEPFQPVKEATQL [L5C], the “area with substrate EALYFQS” value turned out to be 0.119, the “area with substrate ECLYFQS” value amounted to 0.128, the “area with substrate EGLYFQS” value was 0.0958 and the “area with substrate EHLYFQS” value is 0.127. Besides, the “area with substrate EILYFQS” value is 0.128, the “area with substrate ESLYFQS” value was 0.0998 and the “area with substrate EWLYFQS” value was determined as 0.0987.

As to MGESKFKGPRDYNPISSSICHLTNESDGHTTSLYGIGFGPFIITNKHLFRRNNGTLVVQSLHGVFKVKDTTTLQQHLVDGRDMIIIRMPKDFPPFPQKLKFREPQREERICLVTTNFQTKSMSSMVSDTSCTFPSGDGIFWKHWIQTKDGQCGSPLVSTRDGFIVGIHSASNFTNTNNYFTSVPKNFMELLTNQEAQQWVSGWRLNADSVLWGGHKVFMVKPEEPFQPVKEATQL [L5K], the “area with substrate EALYFQS” value turned out to be 0.125, the “area with substrate EELYFQS” value was 0.147, the “area with substrate EHLYFQS” value was 0.111 and the “area with substrate EKLYFQS” value turned out to be 0.108. In addition, the “area with substrate EPLYFQS” value was 0.17, the “area with substrate ESLYFQS” value came out at 0.14, the “area with substrate ETLYFQS” value is 0.139 and the “area with substrate EWLYFQS” value amounted to 0.0972.

With MGESNFKGPRDYNPISSSICHLTNESDGHTTSLYGIGFGPFIITNKHLFRRNNGTLVVQSLHGVFKVKDTTTLQQHLVDGRDMIIIRMPKDFPPFPQKLKFREPQREERICLVTTNFQTKSMSSMVSDTSCTFPSGDGIFWKHWIQTKDGQCGSPLVSTRDGFIVGIHSASNFTNTNNYFTSVPKNFMELLTNQEAQQWVSGWRLNADSVLWGGHKVFMVKPEEPFQPVKEATQL [L5N], the “area with substrate EALYFQS” value is 0.143, the “area with substrate ECLYFQS” value came out at 0.135, the “area with substrate EGLYFQS” value is 0.12 and the “area with substrate EILYFQS” value was found to be 0.135. Also, the “area with substrate EKLYFQS” value is 0.131, the “area with substrate ELLYFQS” value was 0.0911, the “area with substrate EPLYFQS” value is 0.121 and the “area with substrate EQLYFQS” value was found to be 0.16. The “area with substrate ESLYFQS” value was determined as 0.134, the “area with substrate ETLYFQS” value turned out to be 0.129 and the “area with substrate EVLYFQS” value came out at 0.121.

Values taken from the supplement of paper PMC12217912.
